Laboratory results: the supplement of paper PMC7826260
Some of the results follow. Viral Rep nickase domains cut single-stranded DNA in vitro at 3 µM enzyme and 37 °C for 1 h; the strands have 90 letters, of which the middle is given. A value is the log2 ratio of uncut reads to the pool without enzyme; strong cutting gives strongly negative numbers. There is no active / inactive call. The scaling is to total reads; where an enzyme cuts many sequences, the uncut ones exceed 0.

What was measured:
Assay in all cases: uncleaved DNA left, log2 of reads against the no-enzyme library (log2 ratio); higher = less cleavage (more negative = more Rep cleavage of the k-mer); sequences stand for … in CTCGTCCG…ACCGGAGA
[1] = system: T1, Rep nickase domain of Muscovy duck circovirus
T1 sequence (residues 1-111 of Rep, tag left off): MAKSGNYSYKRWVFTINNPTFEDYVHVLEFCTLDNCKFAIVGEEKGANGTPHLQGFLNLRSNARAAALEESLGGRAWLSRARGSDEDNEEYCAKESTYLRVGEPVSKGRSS
Experimental: (§1)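 A pool of 90-nt single-stranded DNAs with seven random bases just before the constant AC of the nick site (name = the seven bases) was cut by 3 µM recombinant His6-SUMO-tagged Rep nickase domain (300 nM DNA, 50 mM HEPES pH 8.0, 50 mM NaCl, 1 mM MnCl2, 1 h, 37 °C, three replicates). Uncut DNA was amplified and sequenced.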

[2] = system: T2, Rep nickase domain of banana bunchy top virus
T2 sequence (residues 1-94 of Rep, tag left off): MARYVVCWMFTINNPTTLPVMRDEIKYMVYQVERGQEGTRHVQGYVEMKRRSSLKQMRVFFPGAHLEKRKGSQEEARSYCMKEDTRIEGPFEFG
Experimental: as §1

[3] = system: T3, Rep nickase domain of cabbage leaf curl virus
T3 sequence (residues 1-116 of Rep, tag left off): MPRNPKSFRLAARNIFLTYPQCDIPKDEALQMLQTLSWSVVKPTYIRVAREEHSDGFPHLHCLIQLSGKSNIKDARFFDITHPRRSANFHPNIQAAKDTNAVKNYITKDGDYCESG
Experimental: as §1

[4] = system: T4, Rep nickase domain of chickpea chlorotic dwarf virus
T4 sequence (residues 1-124 of Rep, tag left off): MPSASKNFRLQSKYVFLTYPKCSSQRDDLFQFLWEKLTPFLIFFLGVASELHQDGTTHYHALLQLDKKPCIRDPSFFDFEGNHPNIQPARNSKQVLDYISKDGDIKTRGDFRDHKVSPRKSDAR
Experimental: as §1

[5] = system: T5, Rep nickase domain of faba bean necrotic yellows virus
T5 sequence (residues 1-98 of Rep, tag left off): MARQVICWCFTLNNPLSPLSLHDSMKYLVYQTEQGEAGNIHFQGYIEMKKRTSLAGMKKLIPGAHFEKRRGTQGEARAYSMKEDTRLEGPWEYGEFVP
Experimental: as §1

[6] = system: T6, Rep nickase domain of maize striate mosaic virus
T6 sequence (residues 1-117 of Rep, tag left off): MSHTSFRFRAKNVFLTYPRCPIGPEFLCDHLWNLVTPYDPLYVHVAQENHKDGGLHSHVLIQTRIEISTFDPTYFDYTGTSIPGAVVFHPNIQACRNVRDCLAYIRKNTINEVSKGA
Experimental: as §1

[7] = system: T7, Rep nickase domain of porcine circovirus 2
T7 sequence (residues 2-116 of Rep, tag left off): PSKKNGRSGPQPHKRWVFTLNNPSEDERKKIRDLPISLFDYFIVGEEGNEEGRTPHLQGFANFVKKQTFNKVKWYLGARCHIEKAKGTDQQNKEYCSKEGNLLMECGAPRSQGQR
Experimental: as §1

[8] = system: T8, Rep nickase domain of tomato yellow leaf curl virus
T8 sequence (residues 1-136 of Rep, tag left off): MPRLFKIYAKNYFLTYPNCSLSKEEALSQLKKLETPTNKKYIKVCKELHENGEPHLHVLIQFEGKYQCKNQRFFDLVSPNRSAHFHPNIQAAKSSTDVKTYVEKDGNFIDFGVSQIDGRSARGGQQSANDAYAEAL
Experimental: as §1

[9] = system: T9, Rep nickase domain of wheat dwarf virus
T9 sequence (residues 1-137 of Rep, tag left off): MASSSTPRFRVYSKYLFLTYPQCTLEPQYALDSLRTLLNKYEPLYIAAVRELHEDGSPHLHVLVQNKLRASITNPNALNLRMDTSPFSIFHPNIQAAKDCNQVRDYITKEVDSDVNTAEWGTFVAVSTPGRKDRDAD
Experimental: as §1

| Sequence | uncleaved DNA left (log2) [1] | uncleaved DNA left (log2) [2] | uncleaved DNA left (log2) [3] | uncleaved DNA left (log2) [4] | uncleaved DNA left (log2) [5] | uncleaved DNA left (log2) [6] | uncleaved DNA left (log2) [7] | uncleaved DNA left (log2) [8] | uncleaved DNA left (log2) [9] |
| --- | --- | --- | --- | --- | --- | --- | --- | --- | --- |
| CCCGGGA | 0.0263 | -0.0344 | 0.433 | 0.952 | -0.103 | 1.49 | 0.0151 | 0.0807 | -0.0348 |
| CCAGTTC | 0.0764 | -0.139 | 0.0725 | -1.03 | 0.00368 | -0.914 | 0.13 | -0.0788 | -0.194 |
| ATAGCCC | -0.0213 | 0.112 | 0.0148 | -0.318 | 0.0596 | -0.508 | 0.0319 | -0.00293 | 0.0187 |
| TTAAGTG | -0.0375 | -0.139 | -0.69 | -1.03 | -0.0521 | -1.22 | 0.0861 | -0.0468 | -0.164 |
| AAATTAT | -2.77 | -0.0123 | -3.67 | -3.05 | 0.122 | -2.74 | -3.78 | -0.0745 | -3.38 |
| GTGAATT | 0.0814 | 0.000283 | 0.361 | 0.907 | 0.000915 | 1.84 | -0.182 | 0.164 | 0.135 |
| CACAAAG | -0.0516 | 0.0943 | -0.778 | -0.152 | 0.0963 | -0.969 | 0.266 | 0.0868 | -0.0144 |
| GTCGCGA | -0.00762 | -0.0666 | -0.46 | -0.343 | -0.0572 | -0.606 | 0.0947 | -0.0387 | -0.165 |
| AGTGAAT | -0.0552 | -0.0736 | 0.158 | 0.694 | -0.103 | 1.45 | -1.31 | -0.125 | -0.0337 |
| GGGGACG | 0.0428 | 0.0524 | 0.867 | 1.81 | -0.00823 | 2.21 | 0.176 | -0.0859 | 0.15 |
| CATATGG | -0.000167 | -0.00455 | -0.3 | -0.0184 | 0.167 | -0.968 | 0.195 | -0.0708 | 0.0318 |
| CGGGATA | 0.117 | -0.017 | 0.703 | 1.67 | 0.0555 | 1.89 | 0.225 | 0.0731 | 0.154 |
| AATTGCA | -0.0722 | -0.0362 | -0.552 | 0.0214 | 0.174 | -0.5 | -0.201 | 0.215 | 0.0343 |
| GACCATT | -0.18 | -0.212 | 0.432 | -0.486 | -0.107 | 1.24 | -0.741 | 0.0117 | 0.0353 |
| CAGGAGT | 0.159 | -0.125 | 0.158 | 1.21 | -0.0831 | 1.42 | 0.0146 | -0.129 | -0.0144 |
| GGCCAGT | 0.122 | 0.196 | 0.585 | 1.42 | 0.0436 | 1.95 | 0.146 | 0.0795 | 0.17 |
| ACAAGAC | -0.0114 | -0.00456 | -0.044 | 0.349 | 0.0169 | -0.636 | 0.0992 | -0.182 | -0.0214 |
| GAGCTTA | -0.0254 | -0.0144 | 0.122 | -0.487 | -0.175 | 0.738 | -0.947 | -0.0885 | -0.0848 |
| GAATCCT | -1.62 | -0.0723 | -2.84 | -2.45 | 0.000395 | -0.977 | -2.73 | 0.0412 | -2.12 |
| CTGAGCG | -0.0393 | -0.0593 | -0.873 | -0.248 | -0.0227 | -1.18 | 0.119 | 0.0108 | -0.181 |
| ATGACCG | 0.01 | -0.0344 | -0.145 | 0.0494 | -0.0497 | -0.385 | 0.123 | -0.144 | -0.00991 |
| AGAAGTC | 0.023 | 0.00192 | -0.285 | -0.262 | -0.00142 | -0.507 | 0.0799 | 0.0101 | -0.0268 |
| CAACCCA | -0.325 | -0.026 | -0.172 | -2.22 | 0.0543 | -0.504 | -1.46 | -0.0177 | 0.0541 |
| CTTATTG | -0.0387 | 0.0537 | -0.589 | -0.532 | -0.0178 | -1.23 | 0.132 | 0.0513 | -0.0723 |
| AACCTGT | -0.044 | -0.0272 | 0.0362 | -0.412 | 0.0203 | 0.406 | -0.275 | -0.114 | -0.142 |
| CAACCAT | -0.192 | -0.0485 | -0.434 | -2.55 | -0.0194 | -0.505 | -1.04 | 0.0824 | 0.0103 |
| TGGCATC | 0.0418 | 0.0502 | 0.7 | 1.47 | 0.0515 | 1.84 | 0.156 | 0.156 | 0.302 |
| TATAAGA | -0.0659 | -0.0317 | -0.157 | -0.622 | -0.017 | -1.07 | -0.0452 | -0.0398 | -0.0515 |
| GTCACTA | -0.00325 | 0.0496 | 0.239 | 0.859 | -0.0183 | 1.65 | 0.0299 | 0.135 | 0.0508 |
| CGCTTCG | 0.0496 | -0.0411 | -0.783 | 0.15 | -0.0275 | -0.963 | 0.256 | -0.0015 | 0.0915 |
